# In PubChem BioAssay (Tox21):
# Where “and” joins values, the source holds several entries; their conditions need not be identical. Equal entries are not always repeated. Inconclusive results, whose numbers are uncertain, are shown with a selection of clear calls. For some assays here: A potency beside an inconclusive call is a rough fit, not a confirmed value. Some compounds were tested as several samples or in several runs, with calls that do not always agree. Calls of active or inactive are those of the source. Unless noted, calls come from the whole dose curve; as a rule, active = well fitted curve in the direction sought with a large enough effect in the repeat runs; inconclusive = weak or mixed curves; inactive = no such curve, though single readings can be large; an effect the other way counts as inactive or inconclusive.
# How the values were obtained:
# [1] = molecular target: Nuclear receptor subfamily 1 group I member 3 (Homo sapiens) (UniProt Q14994); assay: qHTS assay to identify small molecule antagonists of the constitutive androstane receptor (CAR) signaling pathway (AID 1224838);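 note: HepG2 cells stably expressing hCAR with CYP2B6 luciferase reporter stimulated by CITCO; nearly all actives have a fitted effect of over 40% in size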
# Chain of UniProt Q14994 (Q14994 whole entry, looked up): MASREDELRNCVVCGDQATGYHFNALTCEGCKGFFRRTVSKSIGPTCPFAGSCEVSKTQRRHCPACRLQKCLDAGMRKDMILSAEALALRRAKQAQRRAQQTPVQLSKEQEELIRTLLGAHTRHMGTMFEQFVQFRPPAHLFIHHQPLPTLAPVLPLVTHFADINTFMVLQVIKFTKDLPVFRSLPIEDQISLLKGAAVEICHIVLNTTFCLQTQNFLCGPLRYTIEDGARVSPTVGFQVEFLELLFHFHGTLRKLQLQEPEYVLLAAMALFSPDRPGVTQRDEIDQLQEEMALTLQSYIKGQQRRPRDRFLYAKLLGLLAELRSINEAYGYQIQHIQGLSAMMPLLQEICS
# Summary of the method: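 Human hepatoma HepG2 cells expressing hCAR and a CYP2B6 promoter (2.2 kb) luciferase construct; compound titration (15 points) with 50 nM CITCO final, 24 h at 37 C/5% CO2; luminescence via ONE-Glo after 30 min at room temperature.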
# [2] = molecular target: Nuclear receptor subfamily 1 group I member 3 (Homo sapiens) (UniProt Q14994); assay: qHTS assay to identify small molecule agonists of the constitutive androstane receptor (CAR) signaling pathway (AID 1224839); note: nearly all actives have a fitted effect of over 15% in size
# Summary of the method: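 A 15-concentration quantitative screen uses HepG2 cells co-transfected stably with human CAR and CYP2B6-2.2kb reporter. Treatment lasts 24 h with 0.75 uM PK11195 final present; ONE-Glo luminescence is the signal.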
# [3] = qHTS assay to identify small molecule antagonists of the estrogen related receptor signaling pathway with the pleiotropic PPARgamma coactivator (PGC) from Tox21 10K library - cell viability counter screen (AID 1224840; active = well fitted cell-killing curve with a large enough effect in the repeat runs, not every such curve was filed as active; inconclusive = weak or mixed curves, or effect the other way; inactive = no such curve, though single readings can be large or run the other way; note: nearly all actives have a fitted effect of over 40% in size)
# Summary of the method: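 Seeded PGC/ERR cells (2,000/well, 6 h, 37 C/5% CO2) get compound by pin tool; 17.5 h incubation at 37 C; CellTiter-Fluor added, 30 min, fluorescence measured.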
# [4] = qHTS assay to identify small molecule antagonists of the estrogen related receptor signaling pathway with the pleiotropic PPARgamma coactivator (PGC) from Tox21 10K library (AID 1224841; call rule not given here; note: actives are mostly falling curves and most rising ones were filed inactive; nearly all actives have a fitted effect of over 50% in size)
# Summary of the method: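 Test chemicals dissolved in DMSO were applied to pre-incubated (6 h) PGC/ERR cells at 2,000 cells/well for an 18 h, 37 C treatment; reporter luminescence was then read using One-Glo.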
# [5] = molecular target: Thyrotropin receptor (Homo sapiens) (UniProt P16473); assay: qHTS assay to identify small molecule agonists of the thyroid stimulating hormone receptor (TSHR) signaling pathway (AID 1224843; calls by dose curve; note: nearly all actives have a fitted effect of over 45% in size); conditions: TSHR-HEK293 cells, cAMP HTRF, agonist mode, 30 min; activation: at 92.4 µM (top of the series) unless noted
# Chain of UniProt P16473 (P16473 whole entry, looked up): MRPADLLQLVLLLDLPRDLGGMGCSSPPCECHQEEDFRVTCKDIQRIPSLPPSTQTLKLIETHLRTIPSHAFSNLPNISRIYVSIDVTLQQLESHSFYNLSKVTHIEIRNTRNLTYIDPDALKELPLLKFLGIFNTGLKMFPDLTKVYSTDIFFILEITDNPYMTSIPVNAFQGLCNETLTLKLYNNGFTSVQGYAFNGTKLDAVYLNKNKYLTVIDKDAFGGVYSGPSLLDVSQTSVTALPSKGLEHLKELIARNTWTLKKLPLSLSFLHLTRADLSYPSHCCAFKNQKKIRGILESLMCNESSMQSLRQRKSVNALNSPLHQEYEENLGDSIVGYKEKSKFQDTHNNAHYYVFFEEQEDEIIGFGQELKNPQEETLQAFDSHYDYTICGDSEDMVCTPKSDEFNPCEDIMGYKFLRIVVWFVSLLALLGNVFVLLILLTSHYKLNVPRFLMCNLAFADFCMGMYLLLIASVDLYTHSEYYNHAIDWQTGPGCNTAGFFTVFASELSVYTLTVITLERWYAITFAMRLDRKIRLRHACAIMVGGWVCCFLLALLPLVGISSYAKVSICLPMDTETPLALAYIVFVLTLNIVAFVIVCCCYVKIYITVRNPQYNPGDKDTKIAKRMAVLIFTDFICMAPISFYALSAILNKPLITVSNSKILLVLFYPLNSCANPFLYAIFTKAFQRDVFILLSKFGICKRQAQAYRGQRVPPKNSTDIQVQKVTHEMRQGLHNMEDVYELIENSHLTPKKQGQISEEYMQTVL
# Summary of the method: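 HEK293/TSHR, 800 cells/well; cpd 30 min RT; add cAMP-d2 + anti-cAMP-cryptate, 1 h RT; fluorescence read on plate reader. 15-pt titration, n=3.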
# [6] = qHTS assay to identify small molecule agonists of the hypoxia (HIF-1) signaling pathway - cell viability counter screen (AID 1224844; calls by dose curve; note: nearly all actives have a fitted effect of over 50% in size)
# Summary of the method: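 HRE-bla ME-180; 0.5% dFBS; cpd 17 h, 37C, 5% CO2; CellTiter-Glo lum., 30 min RT, post-FRET read, same wells.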
# [7] = qHTS assay to identify small molecule agonists of the hypoxia (HIF-1) signaling pathway (AID 1224846; active = well fitted activation curve with a large enough effect in the signal ratio in the repeat runs, not every such curve was filed as active; inconclusive = weak or mixed curves; the % refers to the signal ratio); conditions: HRE-bla ME-180 cells, beta-lactamase ratio, 17 h; activation: at 76.8 µM (top of the series) unless noted
# Summary of the method: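 Reporter induction in HRE-bla ME-180 cells is taken as agonism: cells sit 5 hrs after plating, receive compounds or DMSO only, incubate 17 hrs at 37C under 5% CO2, and are loaded with CCF4-AM for beta-lactamase FRET measurement.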
# [8] = qHTS assay to identify small molecule agonists of H2AX - cell viability counter screen (AID 1224847; calls by dose curve; note: nearly all actives have a fitted effect of over 30% in size)
# Summary of the method: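 We seed wild-type CHO-K1 cells overnight, treat them for 3 hr at 37C with compounds in 15-concentration series, and quantify remaining viability by CellTiter-Glo luminescence.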
# [9] = qHTS RealTime-Glo MT Cell Viability Assay in HepG2 cells - 40 hour (AID 1224870); note: nearly all actives have a fitted effect of over 50% in size
# Summary of the method: (§1)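 HepG2 cells (600/well) mixed with RealTime-Glo MT reagent, settled 5 h at 37 C/5% CO2 before compound addition. Nonlytic NanoLuc luminescence from viable-cell prosubstrate reduction read repeatedly during 40 h treatment at 37 C.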
# [10] = A CellTox Green Cytotoxicity Assay to monitor cytotoxicity in HEK293 cells - 40 hour (AID 1224871); note: nearly all actives have a fitted effect of over 45% in size
# Summary of the method: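 Tox21 screen in HEK293: membrane-impermeant cyanine dye fluoresces on binding dead-cell DNA; compound pinned 5 h post-seeding, plates held at 37 C, signal read repeatedly through 40 h.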
# [11] = qHTS RealTime-Glo MT Cell Viability Assay in HepG2 cells - 8 hour (AID 1224873); note: nearly all actives have a fitted effect of over 55% in size
# Summary of the method: as §1
# [12] = qHTS RealTime-Glo MT Cell Viability Assay in HEK293 cells - 32 hour (AID 1224868); note: nearly all actives have a fitted effect of over 50% in size
# Summary of the method: (§2)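 HEK293 cells seeded with NanoLuc/prosubstrate reagent, rested 5 h at 37 C, then dosed and kept at 37 C up to 40 h. Nonlytic real-time luminescence from viable cells read at 0, 8, 16, 24, 32 and 40 h.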
# [13] = qHTS RealTime-Glo MT Cell Viability Assay in HEK293 cells - 16 hour (AID 1224872); note: nearly all actives have a fitted effect of over 50% in size
# Summary of the method: as §2
# [14] = qHTS RealTime-Glo MT Cell Viability Assay in HEK293 cells - 40 hour (AID 1224874); conditions: RealTime-Glo luminescence; max response: stronger effect = lower value; note: nearly all actives have a fitted effect of over 50% in size
# Summary of the method: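 HEK293 + NanoLuc + prosubstrate, 600 cells/well; 5 h, 37 C/5% CO2; compound 23 nL in DMSO by pintool; 37 C; luminescence read at 0, 8, 16, 24, 32 and 40 h time points.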
# Potency is the fitted concentration of half-maximal effect; tags give direction and shape of the fitted curve or compound fluorescence and quenching.
SMILES,Potency [1],Potency [2],Potency [3],Potency [4],Potency [5],Potency [6],Potency [7],Potency [8],Potency [9],Potency [10],Potency [11],Potency [12],Potency [13],Potency [14]
C#CCOS(=O)OC1CCCCC1Oc1ccc(C(C)(C)C)cc1 (stereo not drawn),inconclusive: 17.2 µM [inhibitor],active: 5.45 µM,"inconclusive: 21.7 µM [cytotoxic, partial curve]",active: 3.86 µM and active: 3.06 µM,active: 12.2 µM and active: 24.3 µM,"inconclusive: 55 µM [cytotoxic, single point] and active: 43.6 µM","inconclusive: 27.6 µM [falling, partial curve] and inconclusive: 61.6 µM [falling, partial curve]","active: 4.5 µM and inconclusive: 63.5 µM [cytotoxic, partial curve]","inconclusive: 11 µM [falling, full curve]","inconclusive: 34.7 µM [activator, partial curve, poor fit] and active: 21.9 µM","inconclusive: 21.9 µM [falling, partial curve]",,,
COC(=O)c1cc(Oc2ccc(Cl)cc2Cl)ccc1[N+](=O)[O-],inactive,"inconclusive: 68.6 µM [activator, single point]",,,,,,"inconclusive: 31.8 µM [cytotoxic, partial curve, poor fit]",,,,"inconclusive: 24.5 µM [cytotoxic, partial curve]","inconclusive: 24.5 µM [cytotoxic, partial curve]","inconclusive: 24.5 µM [cytotoxic, partial curve]"
CC(C)[C@H](C(=O)O[C@H](C#N)c1cccc(Oc2ccccc2)c1)c1ccc(Cl)cc1,"inconclusive: 54.4 µM [inhibitor, partial curve]","inconclusive: 61.1 µM [activator, partial curve]",,,,,,,,,"inconclusive: 34.6 µM [falling, partial curve]","inconclusive: 54.9 µM [cytotoxic, partial curve, poor fit]","inconclusive: 43.6 µM [cytotoxic, single point]","inconclusive: 61.6 µM [cytotoxic, partial curve, poor fit]"
